Data: paper PMC9648990 (Biochemistry, 2022)

Assays:
SEC-SAXS = molecular target: the molecule itself; test: SEC-SAXS
AUC = molecular target: the molecule itself; test: AUC

B1: Fusicoccadiene synthase from Phomopsis amygdali (PaFS), full-length (enzyme)
chain: MEFKYSEVVEPSTYYTEGLCEGIDVRKSKFTTLEDRGAIRAHEDWNKHIGPCGEYRGTLGPRFSFISVAVPECIPERLEVISYANEFAFLHDDVTDHVGHDTGEVENDEMMTVFLEAAHTGAIDTSNKVDIRRAGKKRIQSQLFLEMLAIDPECAKTTMKSWARFVEVGSSRQHETRFVELAKYIPYRIMDVGEMFWFGLVTFGLGLHIPDHELELCRELMANAWIAVGLQNDIWSWPKERDAATLHGKDHVVNAIWVLMQEHQTDVDGAMQICRKLIVEYVAKYLEVIEATKNDESISLDLRKYLDAMLYSISGNVVWSLECPRYNPDVSFNKTQLEWMRQGLPSLESCPVLARSPEIDSDESAVSPTADESDSTEDSLGSGSRQDSSLSTGLSLSPVHSNEGKDLQRVDTDHIFFEKAVLEAPYDYIASMPSKGVRDQFIDALNDWLRVPDVKVGKIKDAVRVLHNSSLLLDDFQDNSPLRRGKPSTHNIFGSAQTVNTATYSIIKAIGQIMEFSAGESVQEVMNSIMILFQGQAMDLFWTYNGHVPSEEEYYRMIDQKTGQLFSIATSLLLNAADNEIPRTKIQSCLHRLTRLLGRCFQIRDDYQNLVSADYTKQKGFCEDLDEGKWSLALIHMIHKQRSHMALLNVLSTGRKHGGMTLEQKQFVLDIIEEEKSLDYTRSVMMDLHVQLRAEIGRIEILLDSPNPAMRLLLELLRV
B1 was tested, and the “stoichiometry N” value (SEC-SAXS) was 8 and the Kd (AUC) was 330 nM.
